The whole screen tested about 330,000 compounds, of which about 4,200 (1.3%) were called active. This list was built around the results that the source calls inconclusive (neither active nor inactive); the mix of calls is not that of the screen. Calls come from the whole dose curve; as a rule, active = well fitted activation curve with a large enough effect; inconclusive = small, poorly fitted or top-dose-only effect; inactive = no such curve, though single readings can be large or run the other way. Where the call is inconclusive, the potency comes from a doubtful curve fit.
Experiment: qHTS screen for small molecules that induce genotoxicity in human embryonic kidney (HEK293T) cells expressing luciferase-tagged ELG1; note: nearly all actives have a fitted effect of over 60% in size
Conditions: HEK293T ELG1-luciferase reporter, luminescence, 16 h; series mostly up to 46 µM
In short: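 ELG1-luciferase HEK293T cells, 2,000/well; compound pinned in; 16 hr, 37 °C, 5% CO2; ONE-Glo, 30 min RT; luminescence on CCD imager.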
Potency is the fitted concentration of half-maximal effect; tags give direction and shape of the fitted curve.

SMILES | Potency
CCN(CC)CCCn1c2c(c(SCC(=O)Nc3ccc(OC(F)(F)F)cc3)nc1=O)CCC2 | inconclusive: 32.6 µM [activator, partial curve, poor fit]
O=C(c1ccccc1)c1ccc(Cn2cc(-c3ccccc3)nn2)cc1 | inconclusive: 18.3 µM [activator, single point]
Cc1ccc(/C=C/C(=O)Nc2nccs2)o1 | inconclusive: 7.31 µM [activator, partial curve]
COc1cc(N=Nc2cccc(S(N)(=O)=O)c2)c2ccccc2c1N | inconclusive: 18.3 µM [activator, single point]
C/C(=C\C(=O)c1ccccc1)Nc1ccc(N2CCOCC2)cc1 | inconclusive: 7.31 µM [activator, partial curve, poor fit]
CCn1c(=O)n(CC)c2cc(NC(=O)c3ccccc3Cl)ccc21 | inconclusive: 18.3 µM [activator, partial curve, poor fit]
O=C(CSc1nnc(-c2cccs2)o1)c1cccs1 | inconclusive: 9.2 µM [activator, single point]
O=C(Nc1nnc(Cc2ccc([N+](=O)[O-])cc2)s1)Nc1ccccc1F | inconclusive: 16.4 µM [activator, partial curve, poor fit]
CC1(C)CC(N=Cc2c(O)n(Cc3ccc4c(c3)OCO4)c(=O)c3ccccc23)CC(C)(C)N1 | inconclusive: 20.6 µM [activator, single point]
COc1ccccc1C(=O)N=c1sc2c(C)ccc(OC)c2n1C | inconclusive: 20.6 µM [activator, partial curve, poor fit]
Nn1c(CSc2ccccn2)nc2ccccc2c1=O | inconclusive: 11.2 µM [activator, partial curve, poor fit]
O=C(COc1ccccc1)Nc1nc2ccccc2[nH]1 | active: 4.47 µM
Cc1c(NS(=O)(=O)c2ccc3c(c2)OCCO3)cccc1-c1nc2cccnc2s1 | inconclusive: 32.6 µM [activator, partial curve, poor fit]
CCc1ccc2oc(-c3ccc(NC(C)=O)cc3)nc2c1 | active: 3.26 µM
CC(=O)NC(Cc1ccc(F)cc1)C(=O)NC1CCN(C(=O)NCc2ccccc2)CC1 (stereo unspecified) | inactive
Cc1[nH]nc(Nc2ccc(Br)cc2)c1[N+](=O)[O-] | inconclusive: 3.66 µM [activator, full curve]
COc1ccccc1OCc1nc2ccccc2s1 | inconclusive: 0.224 µM [activator, full curve, poor fit]
O=C(Nc1ccccc1[N+](=O)[O-])C1COc2ccccc2O1 (stereo unspecified) | inconclusive: 9.2 µM [activator, partial curve, poor fit]
O=c1c2c(nc3cc(-c4ccc(F)cc4)[nH]n13)CCC2 | active: 18.4 µM
Cc1ccc(N2C(=O)CC3(CC4C=CC3C4)C2=O)cc1 (stereo unspecified) | inconclusive: 25.9 µM [activator, partial curve, poor fit]
CNS(=O)(=O)c1cccc(C(=O)OCC(=O)NC(C)CCc2ccccc2)c1 (stereo unspecified) | inactive
COCCC(=O)Nc1c(-c2ccccc2)c2cc(Br)ccc2[nH]c1=O | inactive
O=C(Cn1cnc2ccccc2c1=O)NCc1ccc2c(c1)OCO2 | inactive

SMILES | Potency
CCCNC(=O)c1cc(-c2ccc3c(c2)OCO3)on1 | inconclusive: 3.66 µM [activator, full curve]
COc1cc2c(cc1OC)-c1cc(Nc3ccccc3)nc(=O)n1CC2 | inconclusive: 13 µM [activator, partial curve]
Cc1cc(C(=O)CN2C(=O)c3cccc(N)c3C2=O)c(C)n1Cc1cccs1 | active: 2.91 µM
CCN(CC(=O)Nc1ccc(OC)cc1)C(=O)c1ccc(N2C(=O)CCC2=O)cc1 | inactive
Cc1ccc(S(=O)(=O)/N=C(/NNC(=O)c2cccc(Cl)c2)c2ccccc2)cc1 | active: 16.4 µM
CC1CC(C)CN(C(=O)CCn2c(=O)oc3ccccc32)C1 (stereo unspecified) | inactive
CC(NC(=O)COc1ccc(S(=O)(=O)N2CCOCC2)cc1)c1ccccc1 (stereo unspecified) | inactive
Cc1cc(C)c2c(N)c(C(=O)N/N=C/c3cccs3)sc2n1 | inconclusive: 2.91 µM [activator, full curve]
COc1cc([N+](=O)[O-])cc(/C=N/NC(=O)c2cc(-c3ccccc3)nc3ccccc23)c1O | inconclusive: 29.1 µM [activator, single point]
Cn1ncc2c(=O)[nH]cnc21 | inactive
O=C(N/N=C/c1cccs1)c1c[nH]c2ccccc12 | inconclusive: 18.4 µM [activator, single point]
Cc1nc(NC(=O)c2cccnc2)ccc1Br | inconclusive: 13 µM [activator, partial curve]
CC1(C)NC(=O)N(CCCOc2ccc3c(c2)CCC3)C1=O | inconclusive: 18.4 µM [activator, single point]
CCOC(=O)c1[nH]c2ccc(OC)cc2c1NC(=S)N1CCN(c2ccc(F)cc2)CC1 | inconclusive: 29.1 µM [activator, partial curve, poor fit]
C=CCC(Nc1ccccc1)c1ccc(OC)c(OC)c1 (stereo unspecified) | inactive
CCOC(=O)c1cc(-c2cccc(C(F)(F)F)c2)nc2nc(SC)[nH]c(=O)c12 | inactive
Cc1cccc(C(=O)OCC(=O)c2cccc(Br)c2)c1O | inconclusive: 11.6 µM [activator, partial curve, poor fit]
Cc1ccccc1NC(=O)CCCNC(=O)c1ccc(Cl)cc1 | inactive
Nc1nc(CSc2ccccn2)nc(Nc2ccccc2)n1 | inconclusive: 16.4 µM [activator, partial curve]
COc1ccc2c(c1)SCC/C2=C\CN1C(=O)CCC1=O | inactive
CC(=O)c1ccc(NC(=O)CSc2ccc(-c3ccc(-n4cccn4)cc3)nn2)cc1 | inconclusive: 23.1 µM [activator, partial curve, poor fit]
COC(=O)CN=Cc1c(C)[nH]n(-c2ccccc2)c1=O | inactive
O=C(N/N=C/c1ccc(Br)cc1)c1ccc(Br)o1 | inconclusive: 9.2 µM [activator, partial curve]
